# About 60 (0.1%) of roughly 46,000 compounds were called active. Inconclusive results (about 3%) are left out. Calls come from the whole dose curve; as a rule, active = well fitted inhibition curve with a large enough effect; inconclusive = small, poorly fitted or top-dose-only effect; inactive = no such curve, though single readings can be large or run the other way. The list shows a part of the results.
# Test: Primary qHTS assay for Inhibitors of ovarian cancer metastasis using an organotypic tumor microenvironment (TME) model.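 For activity change, negative = inhibition: plate controls were DMSO wells for no effect and tomatine positive control wells for full effect.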 Note: nearly all actives have a fitted effect of over 65% in size.
# Conditions: SKOV3ip1-GFP adhesion/invasion on 3D omental model, fluorescence; series mostly up to 45.8 µM; activity change, negative = inhibition: at the top concentration
# Summary of the method: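 qHTS, 4-pt dose (0.36-46 umol/L); SKOV3ip1-GFP, 1,200 cells/well, no FBS; primary omental fibroblast/mesothelial co-culture 48 h pre-grown; 2 h RT + 16 h 37 C; PBS wash, 4% PFA; GFP count 488/509 nm.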
SMILES,"activity change, negative = inhibition",outcome
CCN(Cc1ccccc1)C(=O)c1cn(-c2cccc(OC)c2)c(=O)c2ccccc12,inactive: 0.741%,
Cc1ccc(Cl)cc1N1CCN(C(=O)CCc2nnc3n(C)c(=O)c4ccccc4n23)CC1,inactive: -0.205%,
COc1ccc(CNC(=O)C(CC(C)C)NS(=O)(=O)c2ccc3c(c2)CCN3C(C)=O)cc1 (centres undefined),inactive: 7.04%,
COc1ccc(C(C)=O)c(O)c1,inactive: 8.11%,
COc1ccc(-c2cc(C(=O)Oc3ccc(C#N)cc3)no2)cc1,inactive: 6.05%,
COc1ccc(Nc2nnc(-n3nc(C)cc3C)c3ccccc23)cc1,inactive: -6.52%,
O=C(NCCOCCn1c(=O)oc2ccccc21)Nc1ccc(F)cc1F,,inactive
O=S1(=O)c2ccccc2N(Cc2ccc(F)cc2)c2ccccc21,inactive: -9.78%,
CCCc1cc(=O)[nH]c(SCc2nc(-c3ccccc3)no2)n1,inactive: 5.21%,
COc1ccc(-n2nc(C(N)=O)c3c2C(=O)N(c2ccc(N4CCCCC4=O)cc2)CC3)cc1,inactive: -29.2%,
CCOc1ccc(NC(=O)CN(c2ccc(C)cc2)S(=O)(=O)c2cccs2)cc1,,inactive
Cc1ccc(-c2noc(-c3cccnc3N(C)Cc3ccc(Cl)cc3)n2)cc1,inactive: -8.71%,
COc1cccc(NCc2nnc3n2CCCCC3)c1,inactive: 5.85%,
CCCSCCCNC(=O)c1sc2nc(C)cc(C)c2c1-n1cccc1,inactive: 6.17%,
Cc1ccc(-c2nc(CS(=O)(=O)CC(=O)N3CCN(c4ccccc4)CC3)c(C)o2)cc1,inactive: 3.7%,
COc1cc(Br)cc2cc(S(=O)(=O)c3ccccc3)c(=O)oc12,inactive: -2.02%,
COc1ccc(CNC(=O)c2cc3c(=O)n(Cc4ccc(OC)cc4)ccc3nc2C)cc1,inactive: -22.5%,
CCc1ccc(C(=O)c2cn(CC(=O)Nc3cc(OC)cc(OC)c3)c3ccc(CC)cc3c2=O)cc1,,inactive
CCOc1ccc(CNCCSc2nnnn2C)cc1,inactive: 19.4%,
Cc1ccc(-n2nc(C)c3c(C)c(CCC(=O)NCc4ccc(Cl)cc4)c(C)nc32)cc1,inactive: -0.342%,
COc1ccc(-c2nc3ccccc3s2)cc1NC(=O)c1cccc(F)c1,inactive: -4.83%,
CCc1cccc(C)c1Nc1c(-c2ccc(N(C)C)cc2)nc2cnccn12,,inactive
COc1ccc(OCC(=O)Nc2cc(-c3nc4ccccc4o3)ccc2Cl)cc1,inactive: -1.66%,
Cc1ccc2c(c1)c1c(c(=O)n(-c3cccc(Cl)c3)c(=O)n1CC(N)=O)n2C,inactive: 2.6%,
CCOc1ccc(NC(=O)Cn2nc(CC)n3c(cc4sccc43)c2=O)cc1,,inactive

SMILES,"activity change, negative = inhibition",outcome
COc1cc(Nc2nc3c(S(=O)(=O)c4cccc(Cl)c4)nnn3c3ccsc23)cc(OC)c1,inactive: -2.91%,
COC(=O)c1ccccc1NC(=O)Cn1c(=O)n(-c2ccc(C)cc2)c(=O)c2ccccc21,,inactive
Cc1ccccc1OCCSc1nc2ccc(NC(=O)c3ccco3)cc2s1,inactive: 8.92%,
Cc1ccc(NC(=O)CSc2nc3nccnc3c(=O)n2CCc2c[nH]c3ccccc23)cc1C,inactive: 7.38%,
CCC(=O)N1CCc2cc(S(=O)(=O)NCCC(=O)Nc3ccc(C)cc3C)ccc21,inactive: 0.218%,
CC1CCc2noc(NC(=O)c3ccc([N+](=O)[O-])cc3)c2C1 (centres undefined),inactive: -24.5%,
Cc1ccc(NC(=O)CN2C(=O)c3ccccc3Sc3ccc(C(=O)N4CCOCC4)cc32)cc1C,inactive: 7.97%,
COc1ccccc1OCCNCC(O)COc1cccc2[nH]c3ccccc3c12 (centres undefined),inactive: -13.6%,
O=C1Nc2ccccc2C1Cc1ccc(Br)cc1 (centres undefined),inactive: -5.37%,
CCC(Sc1nc2ccncc2[nH]1)C(=O)Nc1cc(C)ccc1C (centres undefined),inactive: -7.76%,
CCCn1c(=N)c(C(=O)NCc2ccco2)cc2c(=O)n3cc(C)ccc3nc21,,inactive
Cc1ccc(CNC(=O)Cn2ccn(-c3ccc(F)c(F)c3)c(=O)c2=O)cc1,inactive: -14.9%,
CC(=O)c1cccc(NC(=O)c2cc3sc(Cl)cc3n2C)c1,inactive: -13.2%,
Oc1c(C(c2ccc(Cl)cc2Cl)N2CCN(Cc3ccccc3)CC2)sc2nc(-c3ccco3)nn12 (centres undefined),inactive: 1.64%,
CC(C)c1nc(CN(C)C(=O)N[C@H](C(=O)N[C@@H](Cc2ccccc2)C[C@H](O)[C@H](Cc2ccccc2)NC(=O)OCc2cncs2)C(C)C)cs1,inactive: -20.7%,
CCC(=O)Nc1ccc(-c2nc3ncccc3o2)cc1C,,inactive
CCOCCCNC(=O)C(c1ccc(Cl)cc1)N(Cc1ccc2c(c1)OCO2)C(=O)c1ccc(NC(C)=O)cc1 (centres undefined),inactive: -2.52%,
Cc1ccc(CNC(=O)c2ccc(N3Cc4ccccc4Oc4ncccc43)s2)cc1,,inactive
CCOc1ccc(C(=O)Nc2ccc(C(=O)OCc3cc(=O)n4c(C)csc4n3)cc2)cc1,,inactive
CCn1cc(/C=C(\NC(=O)c2ccccc2Cl)C(=O)NCCCn2ccnc2)c2ccccc21,,inactive
Cc1ccc(C2N3CC4(C)CN2CC(c2ccccc2)(C3)C4=O)cc1 (centres undefined),inactive: 2.44%,
COCCNC(=O)CCCn1c(SCc2ccccc2C)nc2c(sc3ccccc32)c1=O,inactive: -0.649%,
COC(=O)c1cc(NC(=O)Cn2ncc3c([nH]c4ccccc43)c2=O)cc(C(=O)OC)c1,inactive: -0.471%,
CCCCN(C)C(=O)C1CCC(Cn2c(=O)[nH]c3ccsc3c2=O)CC1 (centres undefined),inactive: 29.3%,

# — PubChem BioAssay AID1963576 (National Center for Advancing Translational Sciences (NCATS), 2024)
